Measured values as given in PubChem BioAssay AID686979 (National Center for Advancing Translational Sciences (NCATS), 2013).
The whole screen tested about 420,000 compounds, of which about 50,000 (12%) were called active. The inconclusive results got no clear call from the source; some entries with a clear call stand among them for comparison. Calls follow the shape of the dose curve; as a rule, active = well fitted inhibition curve with a large enough effect; inconclusive = small, poorly fitted or top-dose-only effect; inactive = flat fitted curve, though single readings scatter. Potencies of inconclusive entries are left out as doubtful fits.

Test: qHTS for Inhibitors of human tyrosyl-DNA phosphodiesterase 1 (TDP1): qHTS in cells in presence of CPT; also: nearly all actives have a fitted effect of over 55% in size
Conditions: chicken DT40 Tdp1-/-;hTDP1 cells + 20 nM CPT, ATP luminescence, 48 h; activity change, negative = growth inhibition: at 46.2 µM (top of the series)
Outline: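 Chicken DT40 Tdp1-/- cells stably complemented with human TDP1 were seeded at 400 cells/well in medium containing 20 nM camptothecin, exposed to pin-transferred compounds, and grown at 37 °C for at least 48 hr. Viability was read as ATP luminescence.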
% is scaled to controls: 0 for no effect and ±100 for the full control effect; potency is read from the fitted curve at half-maximal effect; tags tell the direction and shape of the fitted curve.

Compound	Potency	activity change, negative = growth inhibition
O=C(NCc1ccco1)c1cc2c(s1)CSC2	inconclusive [inhibitor, single point]	–
Cc1cccc(CC(C)NC(=O)c2cc(COc3ccc(F)cc3F)on2)n1 (centres undefined)	inconclusive [inhibitor, partial curve]	–
CC(=O)COc1ccc2c(C)c(-c3ccccc3)c(=O)oc2c1	inconclusive [inhibitor, single point]	–
COc1ccccc1NC(=O)O/N=C(\N)c1ccccc1	inconclusive [inhibitor, single point]	–
Cc1ccc(N(CC(=O)NC2CCCCC2)C(=O)CNC(=O)c2ccco2)c(C)c1	inactive	–
Cc1ccccc1C(=O)Nc1cccc(NC(=O)Cn2cnc3c(=O)n(C)c(=O)n(C)c32)c1	active: 10.3 µM	–
CS(=O)(=O)N1CCC(Oc2ccccc2C(=O)N2CCC[C@H]2CO)CC1	inactive	–
COc1ccc(-n2c(=S)[nH]c3cc(C(=O)N(C)Cc4ccccc4)ccc3c2=O)cc1	inactive	–
CN1C(=S)SC(C)(C)C1(C)NO (centres undefined)	inconclusive [inhibitor, single point]	–
COc1ccccc1/C=C/C=N/n1c(-c2ccc(Cl)cc2Cl)n[nH]c1=S	inactive	–
CC(C)CCn1c(NCCc2ccccc2)nc2c1c(=O)n(C)c(=O)n2C	active: 13 µM	–
CCOC(=O)C1(CC2CC2)CCN(Cc2ccc(C(=O)OC)cc2)CC1	inconclusive [inhibitor, single point]	–
CC(Cl)C(=O)N1c2ccccc2CCc2ccccc21 (centres undefined)	inconclusive [inhibitor, single point]	–
Oc1c(Cl)cccc1C=Nc1cc(C(F)(F)F)ccc1N1CCCC1	inconclusive [inhibitor, single point]	–
O=C(Cn1c(=O)n(-c2ccc(Cl)cc2)c(=O)c2c3c(sc21)CCC3)c1ccccc1	–	inconclusive: -19% [inhibitor]
CCCCN1CCCC[C@H]1C(=O)Nc1c(C)cccc1C	inactive	–
O=C(CNc1ccc(Br)cc1)NC(=O)NC1CCCCC1	inconclusive [inhibitor, single point]	–
CCN(CC(=O)Nc1c(F)cccc1F)C(=O)CCN1C(=O)C2CC=CCC2C1=O (centres undefined)	inactive	–
CN(C)CCNc1c2c(nc3ccccc13)CCC2	inconclusive [inhibitor, single point]	–
COc1cc(-c2c(NC(=O)c3ccco3)oc3ccccc3c2=O)cc(OC)c1OC	inactive	–
COc1ccc(/C=N/Nc2ncnc3sc4c(c23)CCCC4)cc1OC	inconclusive [inhibitor, single point]	–
CC(C)(C)NC(=O)c1oc2ccccc2c1NC(=O)c1ccc(F)cc1	inconclusive [inhibitor, single point]	–
CCCC(C)(C)C(=O)N1CCC1(C)C(=O)NS(=O)(=O)c1ccccc1Cl (centres undefined)	inactive	–
COC(=O)[C@@]12C[C@@H](CC(=O)NCc3ccc(C)o3)C(=O)N(Cc3ccccc3)C1=CCC(C)(C)C2	inconclusive [inhibitor, single point]	–
CCc1ccc(S(=O)(=O)c2nnn3c2nc(NCCNC(C)=O)c2cc(Cl)ccc23)cc1	inconclusive [inhibitor, single point]	–

Compound	Potency	activity change, negative = growth inhibition
CN(C)CCCNc1ncnc2sc(-c3ccccc3)cc12	inconclusive [inhibitor, single point]	–
COc1ccc(C(=O)Nc2ccc3nc(C)sc3c2)cc1OC	inactive	–
OC(c1ccccc1)c1nc(-c2ccc(Cl)cc2)cs1 (centres undefined)	inconclusive [inhibitor, single point]	–
COc1ncc2nc(-c3cn(C)c4ccccc34)c(=O)n(C)c2n1	inactive	–
O=C(COC(=O)c1cccc(Br)c1)NC(=O)NC1CCCC1	inconclusive [inhibitor, single point]	–
O=C1CCCN1Cc1ccccc1	inactive	–
COc1cccc(CN(Cc2ccco2)S(=O)(=O)c2ccc(S(=O)(=O)NCc3ccccc3)cc2)c1OC	active: 29.1 µM	–
CCOC(=O)CN1C(=O)N[C@@H](c2cccc(C(F)(F)F)c2)[C@@H](C(=O)OC)[C@H]1C	inactive	–
CN(CC(=O)Nc1ccccc1Cl)CC(=O)c1c(N)n(Cc2ccccc2)c(=O)n(C)c1=O	inactive	–
O=C(NCc1cccc2[nH]ccc12)C1CCC(=O)N(CCc2ccccc2)C1 (centres undefined)	inactive	–
CCCCCCCCC(=O)N1C(C)CCC1C (centres undefined)	inconclusive [inhibitor, single point]	–
Cc1ccc(C)c(S(=O)(=O)N2CCCC2CNC(=O)C(=O)NCc2ccccn2)c1 (centres undefined)	inactive	–
Cc1ccnc2ccc3ccccc3c12	inconclusive [inhibitor, single point]	–
COc1ccc(CCN2C(=O)CN(C3CCC(C)CC3)C(=O)C2c2ccc(OC(C)C)c(OC)c2)cc1OC (centres undefined)	active: 16.4 µM	–
C/C(=N\Nc1ccc(Cl)c(Cl)c1)c1ccc(-n2ccnc2)cc1	inconclusive [inhibitor, single point]	–
CCCCNC(=O)C(CC)Sc1nc2ccccc2c(=O)n1CCc1ccc(OC)c(OC)c1 (centres undefined)	active: 8.2 µM	–
Cc1ccc(Cn2cc(CCC(=O)NCc3ccc(OC(C)C)cc3)c3ccccc32)cc1	active: 23.1 µM	–
C#CCSc1nnc(CSc2nc3ccccc3s2)n1-c1ccccc1	inconclusive [inhibitor, single point]	–
COCCN(CCOC)c1ncnc2c1c(-c1ccccc1)cn2-c1ccc(C)c(Cl)c1	inconclusive [inhibitor, single point]	–
CC(Oc1ccccc1)C(=O)N(CCC1=CCCCC1)c1c(N)n(Cc2ccccc2)c(=O)[nH]c1=O (centres undefined)	–	inconclusive: -35.1% [inhibitor]
Cn1nc(C(F)(F)F)c2cc(C(=O)N3CCOCC3)sc21	inactive	–
Cn1c(SCc2ccccc2F)nc2c([nH]c3ccccc32)c1=O	inconclusive [inhibitor, full curve]	–
Cc1ccc(-c2nc3ccc(Br)cn3c2Cc2ccccc2C(F)(F)F)cc1	active: 16.4 µM	–
Cc1cc(C)c(C(O)c2ncc(-c3ccccc3Cl)[nH]2)c(C)c1 (centres undefined)	inconclusive [inhibitor, single point]	–
Cc1nccn1CCOc1ccc(Cl)cc1	inactive	–

Compound	Potency	activity change, negative = growth inhibition
OC(CNCc1ccc(F)cc1)(c1ccccc1)c1ccc(F)cc1 (centres undefined)	inconclusive [inhibitor, single point]	–
CCc1nn(CCCC(=O)NC(C)c2ccccc2)c(=O)c2cc3occc3n12 (centres undefined)	inconclusive [inhibitor, single point]	–
CCCCCN(C(=O)NC(=O)Nc1nncs1)S(C)(=O)=O	inactive	–
Cc1ccc(O)c(C(=O)c2cc(C(=O)NCCc3ccccc3)c(=O)n(CCc3ccccc3)c2)c1	inconclusive [inhibitor, single point]	–
CCC(CC)C(=O)OCC(=O)C1(O)CCC2C3CCC4=CC(=O)CCC4(C)C3C(O)CC21C (centres undefined)	inactive	–
C/C(CC(=O)N(C(C)C)C(C)C)=N\NC(=O)COc1ccc(Cl)cc1Cl	–	inconclusive: -30.1% [inhibitor]
Cc1cc([N+](=O)[O-])ccc1NC(=O)c1ccc(NC(=O)C(C)C)cc1	inconclusive [inhibitor, single point]	–
CCCCCNC(=O)c1c[nH]c2ccc(S(=O)(=O)N3CCC4(CC3)OCCO4)cc2c1=O	inconclusive [inhibitor, single point]	–
Cc1cc(C)c(C)c(S(=O)(=O)NCCCn2ccnc2)c1C	inconclusive [inhibitor, single point]	–
COc1ccc(CN(C)C(=O)Cc2ccsc2)c(OC)c1OC	inactive	–
CC1(C)N=C(C(=O)c2ccccc2)N(O)C1(C)O (centres undefined)	inactive	–
CN(CC(=O)Nc1ccc(Cl)c(C(F)(F)F)c1)C(=O)c1cccnc1Sc1ccccc1	inconclusive [inhibitor, single point]	–
Cc1noc(C)c1COC(=O)c1ccccc1Sc1ccccc1C#N	active: 25.9 µM	–
CCc1ccc(NC(=O)Cn2c(-c3cncs3)nc3ccccc32)cc1	inconclusive [inhibitor, single point]	–
CC(C)c1nc(SCC(=O)N2CCOCC2)c2c(=O)n(C)c(=O)n(C)c2n1	inconclusive [inhibitor, single point]	–
COc1ccccc1OCC(=O)N/N=C(\C)c1ccc2ccccc2c1	inconclusive [inhibitor, single point]	–
CN(c1ccccc1)S(=O)(=O)c1ccc(NC(=O)CC(=O)c2ccccc2)cc1	inconclusive [inhibitor, single point]	–
COc1cccc(N(CC(=O)Nc2ccccc2C(=O)N2CCCC2)S(C)(=O)=O)c1	inactive	–
COc1ccc(Cc2nnc(NS(=O)(=O)c3ccc([N+](=O)[O-])cc3)s2)cc1	inactive	–
COc1ccc(-c2nc3c(C)cc(Br)cn3c2Cc2cccc(Cl)c2)cc1OC	inconclusive [inhibitor, single point]	–
c1ccc(-c2ncc3c(ccc4ccccc43)n2)cc1	inactive	–
COc1ccc(C)cc1NC(=O)c1ccc2c(c1)nnn2C1CCCC1	inconclusive [inhibitor, single point]	–
N=c1c2ccccc2nc2n1CCCCCCC2	inactive	–
COc1cc(NS(=O)(=O)c2ccc(N/C=C\C(=O)c3ccc(OC)c(OC)c3)cc2)nc(OC)n1	inconclusive [inhibitor, single point]	–
